# Data: the supplement of paper PMC12217912
# Some of the results follow. Sequences were assembled here from the parent chain. Inactive controls read about 0.05.
# B1: TEV protease; numbered along this chain (parent)
# chain: MGESLFKGPRDYNPISSSICHLTNESDGHTTSLYGIGFGPFIITNKHLFRRNNGTLVVQSLHGVFKVKDTTTLQQHLVDGRDMIIIRMPKDFPPFPQKLKFREPQREERICLVTTNFQTKSMSSMVSDTSCTFPSGDGIFWKHWIQTKDGQCGSPLVSTRDGFIVGIHSASNFTNTNNYFTSVPKNFMELLTNQEAQQWVSGWRLNADSVLWGGHKVFMVKPEEPFQPVKEATQL
# Variants of: B1
# Experiment: raw area under fraction-flipped curve 0-4 h after induction (AUC4h, not background-subtracted), DNA-recorder readout of cleavage of the substrate (dimensionless); higher = more cleavage of the substrate by the protease variant
# Conditions: temperature: 34 °C; time window: 0-4 h after rhamnose induction
# Method: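 In vivo DNA recorder in E. coli TOP10(DE3) ΔrhaA at 34 °C. Each TEVp single-site mutant (parent TEVp 0) is paired with a single-site variant of the 7-mer TEVs (canonical ENLYFQ|S). The substrate sits between flexible linkers in a Bxb1-sfGFP-TEVs-SsrA fusion, so cleavage stabilises Bxb1 and speeds flipping of a recombination array, read by NGS. The value is the raw area under the fraction-flipped curve over 0-4 h after rhamnose induction (AUC4h), with ≥20 reads per time point. It is not background-subtracted; inactive controls average about 0.047.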
# 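Note: Bxb1 expression induced with 0.2% (w/v) L-rhamnose at OD600 near 0.5, cultures sampled hourly, flipped fraction per protease–substrate barcode pair counted by paired-end Illumina sequencing.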
Variant,area with substrate ENLDFQS,area with substrate ENLEFQS,area with substrate ENLFFQS,area with substrate ENLMFQS,area with substrate ENLPFQS,area with substrate ENLQFQS,area with substrate ENLRFQS,area with substrate ENLHFQS,area with substrate ENLNFQS,area with substrate ENLVFQS,area with substrate ENLGFQS,area with substrate ENLIFQS,area with substrate ENLKFQS,area with substrate ENLLFQS,area with substrate ENLSFQS,area with substrate ENLWFQS
MGESLFKGPRDYNPISSSICHLTNESDGHTTSLYGIGFGPFIITNKHLFRRNNGTLVVQSLHGVFKVKDTTTLQQHLVDGRDMIIIRMPKDFPPFPQKGKFREPQREERICLVTTNFQTKSMSSMVSDTSCTFPSGDGIFWKHWIQTKDGQCGSPLVSTRDGFIVGIHSASNFTNTNNYFTSVPKNFMELLTNQEAQQWVSGWRLNADSVLWGGHKVFMVKPEEPFQPVKEATQL [L99G],0.0686,0.0504,0.0838,0.0648,0.0763,0.0488,0.0557,,,,,,,,,
MGESLFKGPRDYNPISSSICHLTNESDGHTTSLYGIGFGPFIITNKHLFRRNNGTLVVQSLHGVFKVKDTTTLQQHLVDGRDMIIIRMPKDFPPFPQKLKFREPQREERYCLVTTNFQTKSMSSMVSDTSCTFPSGDGIFWKHWIQTKDGQCGSPLVSTRDGFIVGIHSASNFTNTNNYFTSVPKNFMELLTNQEAQQWVSGWRLNADSVLWGGHKVFMVKPEEPFQPVKEATQL [I110Y],0.0487,,0.0616,0.0697,,0.0452,0.0424,0.0566,0.0692,0.0656,,,,,,
MGESLFKGPRDYNPISSSICHLTNESDGHTTSLYGIGFGPFIITNKHLFRRNNGTLVVQSLHGVFKVKDTTTLQQHLVDGRDMIIIRMPKDFPPFPQKLKCREPQREERICLVTTNFQTKSMSSMVSDTSCTFPSGDGIFWKHWIQTKDGQCGSPLVSTRDGFIVGIHSASNFTNTNNYFTSVPKNFMELLTNQEAQQWVSGWRLNADSVLWGGHKVFMVKPEEPFQPVKEATQL [F101C],0.0751,0.0507,0.0535,,0.0568,0.0483,0.0874,0.0543,,0.0619,0.0361,0.0649,0.0685,0.0665,0.0568,
MGESLFKGPRDYNPISSSICHLTNESDGHTTSLYGIGFGPFIITNKHLFRRNNGTLVVQSLHGVFKVKDTTTLQQHLVDGRDMIIIRMPKNFPPFPQKLKFREPQREERICLVTTNFQTKSMSSMVSDTSCTFPSGDGIFWKHWIQTKDGQCGSPLVSTRDGFIVGIHSASNFTNTNNYFTSVPKNFMELLTNQEAQQWVSGWRLNADSVLWGGHKVFMVKPEEPFQPVKEATQL [D91N],0.0744,,0.126,,,,0.086,,0.0626,,,0.0842,0.0853,0.0904,0.0261,0.0673
MGESLFKGPRDYNPISSSICHLTNESDGHTTSLYGIGFGPFIITNKHLFRRNNGTLVVQSLHGVFKVKDTTTLQQHLVDGRDMIIIRMPKRFPPFPQKLKFREPQREERICLVTTNFQTKSMSSMVSDTSCTFPSGDGIFWKHWIQTKDGQCGSPLVSTRDGFIVGIHSASNFTNTNNYFTSVPKNFMELLTNQEAQQWVSGWRLNADSVLWGGHKVFMVKPEEPFQPVKEATQL [D91R],0.0679,,,,0.0396,,,,,0.0927,0.0745,,,,,0.0815
MGESLFKGPRDYNPISSSICHLTNESDGHTTSLYGIGFGPFIITNKHLFRRNNGTLVVQSLHGVFKVKDTTTLQQHLVDGRDMIIIRMPKDFPPFPQKLKFREPQREERICLVTANFQTKSMSSMVSDTSCTFPSGDGIFWKHWIQTKDGQCGSPLVSTRDGFIVGIHSASNFTNTNNYFTSVPKNFMELLTNQEAQQWVSGWRLNADSVLWGGHKVFMVKPEEPFQPVKEATQL [T115A],0.0547,0.0602,0.0813,,0.066,,0.0665,0.0768,0.0797,0.0838,,0.0775,,,,0.0511
MGESLFKGPRDYNPISSSICHLTNESDGHTTSLYGIGFGPFIITNKHLFRRNNGTLVVQSLHGVFKVKDTTTLQQHLVDGRDMIIIRMPKDFPPDPQKLKFREPQREERICLVTTNFQTKSMSSMVSDTSCTFPSGDGIFWKHWIQTKDGQCGSPLVSTRDGFIVGIHSASNFTNTNNYFTSVPKNFMELLTNQEAQQWVSGWRLNADSVLWGGHKVFMVKPEEPFQPVKEATQL [F95D],0.0471,,,,0.0556,,,,,,,0.0358,,0.0402,,
MGESLFKGPRDYNPISSSICHLTNESDGHTTSLYGIGFGPFIITNKHLFRRNNGTLVVQSLHGVFKVKDTTTLQQHLVDGRDMIIIRMPKDFPPKPQKLKFREPQREERICLVTTNFQTKSMSSMVSDTSCTFPSGDGIFWKHWIQTKDGQCGSPLVSTRDGFIVGIHSASNFTNTNNYFTSVPKNFMELLTNQEAQQWVSGWRLNADSVLWGGHKVFMVKPEEPFQPVKEATQL [F95K],0.0477,,0.0627,0.0427,,0.0623,0.0492,,0.0565,,,,0.0483,,0.0376,0.0469
MGESLFKGPRDYNPISSSICHLTNESDGHTTSLYGIGFGPFIITNKHLFRRNNGTLVVQSLHGVFKVKDTTTLQQHLVDGRDMIIIRMPKDFPPCPQKLKFREPQREERICLVTTNFQTKSMSSMVSDTSCTFPSGDGIFWKHWIQTKDGQCGSPLVSTRDGFIVGIHSASNFTNTNNYFTSVPKNFMELLTNQEAQQWVSGWRLNADSVLWGGHKVFMVKPEEPFQPVKEATQL [F95C],0.0526,,0.0799,,0.0499,0.067,0.0801,,0.0622,0.0426,,0.0703,0.0653,0.0608,,
MGESLFKGPRDYNPISSSICHLTNESDGHTTSLYGIGFGPFIITNKHLFRRNNGTLVVQSLHGVFKVKDTTTLQQHLVDGRDMIIIRMPKDFPSFPQKLKFREPQREERICLVTTNFQTKSMSSMVSDTSCTFPSGDGIFWKHWIQTKDGQCGSPLVSTRDGFIVGIHSASNFTNTNNYFTSVPKNFMELLTNQEAQQWVSGWRLNADSVLWGGHKVFMVKPEEPFQPVKEATQL [P94S],0.0757,0.0659,0.0902,,0.0446,,,0.0626,0.053,,,0.0779,,0.0836,0.0602,
MGESLFKGPRDYNPISSSICHLTNESDGHTTSLYGIGFGPFIITNKHLFRRNNGTLVVQSLHGVFKVKDTTTLQQHLVDGRDMIIIRMPPDFPPFPQKLKFREPQREERICLVTTNFQTKSMSSMVSDTSCTFPSGDGIFWKHWIQTKDGQCGSPLVSTRDGFIVGIHSASNFTNTNNYFTSVPKNFMELLTNQEAQQWVSGWRLNADSVLWGGHKVFMVKPEEPFQPVKEATQL [K90P],0.066,,0.0824,,,0.065,0.0801,0.0757,,,,0.0919,,0.0553,0.0766,0.063
